Assay results reported in paper PMC4336329 (PLoS ONE, 2015).
Among all 310,000 compounds or so, about 14,000 (4.5%) showed an effect of 50% or more. The effect is printed as a negative number. The list shows a part of the results.

Target: human ether-à-go-go-related gene (hERG) potassium channel (human, UniProt Q12809)
Test: primary screen, population patch clamp on CHO cells stably expressing hERG
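Also: peak tail current of the secondary pulse compared with the same well before compound.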

Chain of human ether-à-go-go-related gene (hERG) potassium channel (Q12809 whole entry, looked up): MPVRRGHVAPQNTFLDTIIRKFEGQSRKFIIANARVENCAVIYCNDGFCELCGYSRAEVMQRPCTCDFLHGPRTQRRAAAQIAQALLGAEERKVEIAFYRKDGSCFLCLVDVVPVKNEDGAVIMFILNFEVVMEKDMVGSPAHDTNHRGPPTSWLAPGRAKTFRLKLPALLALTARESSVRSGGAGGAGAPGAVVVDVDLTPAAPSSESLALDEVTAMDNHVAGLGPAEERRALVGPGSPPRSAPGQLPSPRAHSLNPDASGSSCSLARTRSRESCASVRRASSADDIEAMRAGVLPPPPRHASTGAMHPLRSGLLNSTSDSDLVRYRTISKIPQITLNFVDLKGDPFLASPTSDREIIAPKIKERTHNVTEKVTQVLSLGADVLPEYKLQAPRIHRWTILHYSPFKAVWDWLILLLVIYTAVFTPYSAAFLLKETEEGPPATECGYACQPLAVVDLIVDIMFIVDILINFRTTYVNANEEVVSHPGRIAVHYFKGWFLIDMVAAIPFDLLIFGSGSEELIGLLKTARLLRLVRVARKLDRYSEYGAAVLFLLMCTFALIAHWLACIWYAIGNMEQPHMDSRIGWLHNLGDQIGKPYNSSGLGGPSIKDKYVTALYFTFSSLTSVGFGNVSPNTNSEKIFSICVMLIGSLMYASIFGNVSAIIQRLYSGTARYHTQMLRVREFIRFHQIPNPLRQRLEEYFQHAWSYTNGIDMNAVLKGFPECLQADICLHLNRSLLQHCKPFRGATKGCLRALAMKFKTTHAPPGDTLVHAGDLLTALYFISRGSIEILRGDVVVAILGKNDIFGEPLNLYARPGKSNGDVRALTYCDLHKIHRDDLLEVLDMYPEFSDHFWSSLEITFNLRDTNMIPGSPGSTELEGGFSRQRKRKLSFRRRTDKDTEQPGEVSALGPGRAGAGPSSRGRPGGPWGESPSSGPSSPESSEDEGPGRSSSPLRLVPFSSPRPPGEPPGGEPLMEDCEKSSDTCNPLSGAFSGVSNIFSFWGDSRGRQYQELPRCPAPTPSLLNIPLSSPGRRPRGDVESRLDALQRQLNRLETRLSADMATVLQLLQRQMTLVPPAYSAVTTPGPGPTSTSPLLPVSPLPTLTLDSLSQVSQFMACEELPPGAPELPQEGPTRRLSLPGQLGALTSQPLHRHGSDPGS

Row | Structure (SMILES) | hERG current change (%, negative = inhibition) at 10uM [%]
1 | CCOc1ccc(NS(=O)(=O)c2cc3c4c(c2)C(C)C(=O)N4CCC3)cc1 (stereo not shown) | -0.0129
2 | O=C(O)Cc1ccc(NC(=O)c2ccc(NC(=O)c3ccco3)cc2)cc1 | 18.9
3 | CC(=O)Nc1nc(C)c(CCCOc2ccc([N+](=O)[O-])cc2)c(=O)[nH]1 | 0.762
4 | COc1ccc(NC(=O)CN2CCC(C(N)=O)(N3CCCCC3)CC2)cc1 | 0.362
5 | C[C@@H](NC(=O)c1nc[nH]c1C(=O)N1CCN(c2ccccc2)CC1)c1ccccc1 | 4.6
6 | Cc1cccc(OCCOC(=O)C2CCN(S(=O)(=O)c3cccs3)CC2)c1 | 6.58
7 | S=C(Nc1ccccc1)Nc1ccc(OCc2ccccc2)cc1 | -0.702
8 | CCNc1nc(SC(C)C(=O)Nc2ccccc2)nc(N(C)C)n1 (stereo not shown) | 11.8
9 | COC(=O)c1cccc(C23CC4(C2)[C@H](CN(Cc2ccc(-c5ccccc5)cc2)[C@@H]4c2ccccc2)C3c2ccc(C(F)(F)F)cc2)c1 (stereo partly shown) | 16.5
10 | Cc1ccc(Cn2cc(C=O)c(-c3ccc(C)cc3)n2)cc1 | 9.59
11 | Cc1nc2sc(-c3ccccc3)cc2c(=O)[nH]1 | 12.6
12 | COc1ccccc1CN(C)C(=O)c1ccc(COc2ccccc2)cc1 | 6.77
13 | CCN(CC)CCN(C)Cc1nc(C(c2ccccc2)c2ccccc2)no1 | -57.7
14 | CCOc1cc(C(=S)N2CCCC2)ccc1O | 16.7
15 | CCOc1ccc(-n2nc3c(Cl)nnc(C)c3c2C)cc1 | -10.7
16 | CCOc1ccc(OCCNCc2ccc(OC(C)C(=O)N(C)C)c(OCC)c2)cc1.O=C(O)C(=O)O (stereo not shown) | -9.05
17 | CCc1cccc2c(C(=O)CSc3nncn3-c3ccccc3OC)c[nH]c12 | -11.4
18 | COC(=O)c1[nH]c2cccc(OC)c2c1NC(=O)CN(C)CC1OCCO1 | -12.5
19 | Cc1nc(NCCc2ccc(F)cc2)c2nnn(Cc3ccccc3)c2n1 | -4.32
20 | COc1ccccc1-c1ccc(=O)n(CC(=O)NCc2ccc3c(c2)OCO3)n1 | -3.49
21 | CCN(CC)C(=S)SCC(=O)Nc1nc(=O)c2ccccc2s1 | 28.8
22 | COC(=O)c1ccccc1OCC(=O)NC1CCCCC1 | -21.3

Row | Structure (SMILES) | hERG current change (%, negative = inhibition) at 10uM [%]
23 | CCc1noc(N)c1C(=O)Nc1ccc(Cl)cc1 | -31.3
24 | CC(=O)NC1C(OC(=O)Cc2ccccc2)OC(COC(C)=O)C(OC(C)=O)C1OC(C)=O (stereo not shown) | -0.962
25 | CN(CC(=O)NCc1cccnc1)S(=O)(=O)c1ccc(F)cc1 | 21.3
26 | CC(C)N(Cc1nc(-c2ccccc2)no1)C(=O)CCCN1C(=O)c2ccccc2C1=O | -43.8
27 | Cc1ccc(S(=O)(=O)N/N=C/c2ccc(OCC(=O)N3CCOCC3)cc2)cc1 | -6.71
28 | O=P(c1cccs1)(c1cccs1)c1cccs1 | -12
29 | CCOc1ccccc1/C=N/NC(=O)Cc1csc(Nc2cccc(C(F)(F)F)c2)n1 | 4.05
30 | CC(C)(C)NC(=O)C1CN(S(=O)(=O)c2ccccc2)CCN1S(=O)(=O)c1ccccc1 (stereo not shown) | -7.3
31 | COCc1c(C(=O)N2CCN(CCOc3ccccc3)CC2)oc2ccccc12 | -63.5
32 | COc1ccccc1NC(=O)Nc1nc(CC(=O)Nc2ccccc2F)cs1 | 14.9
33 | O=C(O)c1ccc(/C=C2\COc3ccccc3C2=O)cc1 | -20.5
34 | O=C(Nc1nc(-c2cccnc2)cs1)c1ccccc1[N+](=O)[O-] | 8.67
35 | CCC1Oc2ccc(C)cc2N(CC(=O)NCCCN2CCCCC2CC)C1=O (stereo not shown) | -7.91
36 | CC1(C)C2CCC1(C)C(OC(=O)CSc1nc(N)cc(=O)[nH]1)C2 (stereo not shown) | -0.25
37 | O=C(NCc1n[nH]c(=S)n1-c1ccc(F)cc1)c1ccc(S(=O)(=O)N2CCOCC2)cc1 | 23.4
38 | Cc1cc(C)c2c(=O)[nH]c(SCc3ccccc3C)nc2n1 | 8.96
39 | COc1ccccc1/C=C/CN1CCC(n2nccc2NC(=O)C2CC2)CC1 | -59.1
40 | CCOC(=O)C(=NC1CCS(=O)(=O)C1)NNc1ccc(Br)cc1 (stereo not shown) | -27.4
41 | CCOC(=O)c1cc(-c2ccc(C)cc2)n(CCC(=O)NCCN(C)C)c1C | -14.6
42 | CCN(CC(=O)Nc1ccc(NC(C)=O)cc1)C(=O)c1cccnc1Sc1ccc(C)c(C)c1 | 2.06
43 | COc1cccc(N2C(=O)C3C(C2=O)C2C=CC3C23CC3)c1 (stereo not shown) | -13
